# Measurements from a collection of fitness landscapes (doi:10.1016/j.celrep.2020.107928).
# Whole data set: some 81,000 sequences, median “one-hybrid fitness for binding NBS DNA” near -0.1, cut for the highest 2% near 0.36. This is one part of the list.
# B1: Caulobacter ParB omega fusion; a variant is named by its letters at X, in order, B8GW30 (parent)
# chain: MESVVVGEPGMSEGRRGLGRGLSALLGEVDAAPAQAPGEQLGGSREAPIEILQRNPDQPRRTFREEDLEDLSNSIREKGVLQPILVRPSPDTAGEYQIVAGERAWRAAQRAGLKTVPIMVRELDDLAVLEIGIIENVQRADLNVLEEALSYKVLMEKFERTQENIAQTIGKSXSHVANXMRLLXLPDEVQSYLVSGELTAXHARAIAAAADPVALAKQIIEGGLSVRETEALARKAPNLSAGKSKGGRPPRVKDTDTQALESDLSSVLGLDVSIDHRGSTGTLTITYATLEQLDDLCNRLTRGI
# Variants of: B1
# Assay: one-hybrid fitness for binding NBS DNA (the Noc-binding site; scaled: cognate 1, non-cognate 0); higher = stronger binding
# Conditions: with NBS DNA site
# Outline: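 Fitness here means the log change in variant-to-wild-type read ratio between plasmids sequenced before and after selection. That scale was set so cognate equals 1 and non-cognate equals 0. The selection was a bacterial one-hybrid screen of Caulobacter ParB libraries, four specificity codons randomised, in E. coli USO carrying a HIS3 reporter with the site 19 bp from the promoter, grown 48 hours at 37°C on M9-minus-histidine with 0.1 mM IPTG and 5 mM 3-AT.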
row,Variant,one-hybrid fitness for binding NBS DNA
1,QLIA,≤ 0.2
2,RFPM,≤ 0.2
3,HLKY,≤ 0.2
4,LMPE,≤ 0.2
5,HYVG,≤ 0.2
6,LFAR,≤ 0.2
7,NLDC,≤ 0.2
8,SRPS,≤ 0.2
9,QTLQ,≤ 0.2
10,VCDS,≤ 0.2
11,SHET,≤ 0.2
12,WMQV,≤ 0.2
13,HTNK,≤ 0.2
14,FYLF,≤ 0.2
15,NLHS,≤ 0.2
16,EMAS,≤ 0.2
17,HRFG,≤ 0.2
18,RLWL,≤ 0.2
19,SPSQ,≤ 0.2
20,PTQN,≤ 0.2
21,AFAL,≤ 0.2
22,KLSN,≤ 0.2
23,PETS,≤ 0.2
24,SCTA,≤ 0.2

row,Variant,one-hybrid fitness for binding NBS DNA
1,KMAL,≤ 0.2
2,TRKF,≤ 0.2
3,CPYS,≤ 0.2
4,ERRM,≤ 0.2
5,LLVR,≤ 0.2
6,YALM,≤ 0.2
7,YTDR,≤ 0.2
8,SKRV,≤ 0.2
9,CCIK,≤ 0.2
10,VTPC,≤ 0.2
11,THLQ,≤ 0.2
12,IHFR,≤ 0.2
13,GPSW,≤ 0.2
14,KNYG,≤ 0.2
15,LVRM,≤ 0.2
16,ACTL,≤ 0.2
17,SVPY,≤ 0.2
18,VEDW,≤ 0.2
19,IHWS,≤ 0.2
20,LPVT,≤ 0.2
21,NLPG,≤ 0.2
22,TPLS,≤ 0.2
23,GVNY,≤ 0.2
24,FYAG,≤ 0.2

row,Variant,one-hybrid fitness for binding NBS DNA
1,VIPL,≤ 0.2
2,AAAY,≤ 0.2
3,KIFL,≤ 0.2
4,QQQT,0.449
5,ETST,≤ 0.2
6,SCDG,≤ 0.2
7,TKTQ,≤ 0.2
8,KECR,≤ 0.2
9,GPCR,≤ 0.2
10,ARPH,≤ 0.2
11,DVNH,≤ 0.2
12,TKIV,≤ 0.2
13,LQIG,≤ 0.2
14,MNSC,≤ 0.2
15,QREN,≤ 0.2
16,TIDL,≤ 0.2
17,PNAI,≤ 0.2
18,AIDF,≤ 0.2
19,QIMY,≤ 0.2
20,FPMG,≤ 0.2
21,YYYG,≤ 0.2
22,SCLF,≤ 0.2
23,GKYF,≤ 0.2
24,ETAD,≤ 0.2

row,Variant,one-hybrid fitness for binding NBS DNA
1,HAHQ,≤ 0.2
2,YMDC,≤ 0.2
3,AGSP,≤ 0.2
4,IWPC,≤ 0.2
5,SSCW,≤ 0.2
6,QCYM,≤ 0.2
7,ALWM,≤ 0.2
8,ACLP,≤ 0.2
9,EQNC,≤ 0.2
10,CSKL,≤ 0.2
11,QLMT,0.34
12,MFTR,≤ 0.2
13,VVGR,≤ 0.2
14,VRSR,0.256
15,NSTR,≤ 0.2
16,IASR,≤ 0.2
17,ERQV,≤ 0.2
18,IGNL,≤ 0.2
19,DWGL,≤ 0.2
20,HGAS,≤ 0.2
21,SLDD,≤ 0.2
22,KFYR,≤ 0.2
23,HKLD,≤ 0.2
24,DLMS,≤ 0.2

row,Variant,one-hybrid fitness for binding NBS DNA
1,VGKG,≤ 0.2
2,RFTQ,≤ 0.2
3,PWWR,≤ 0.2
4,IVMS,≤ 0.2
5,SRCG,≤ 0.2
6,EHVN,≤ 0.2
7,KSGT,≤ 0.2
8,MIQS,≤ 0.2
9,KTYI,≤ 0.2
10,PMTF,≤ 0.2
11,IWSI,≤ 0.2
12,YAEN,≤ 0.2
13,GNNY,≤ 0.2
14,FIVL,≤ 0.2
15,SMCC,≤ 0.2
16,FFCS,≤ 0.2
17,TQYT,≤ 0.2
18,AHVV,≤ 0.2
19,VDLL,≤ 0.2
20,DRVS,≤ 0.2
21,PTKR,0.27
22,VLAI,≤ 0.2
23,SRDS,≤ 0.2
24,YETY,≤ 0.2

row,Variant,one-hybrid fitness for binding NBS DNA
1,VQLC,≤ 0.2
2,KTWV,≤ 0.2
3,LIGC,≤ 0.2
4,PTAS,≤ 0.2
5,EIWR,≤ 0.2
6,RDCR,≤ 0.2
7,RQAA,≤ 0.2
8,RRPA,0.282
9,AQLP,≤ 0.2
10,NMTT,≤ 0.2
11,YMVW,≤ 0.2
12,RKMR,0.577
13,WHDS,≤ 0.2
14,SCYE,≤ 0.2
15,ASHC,≤ 0.2
16,FGAG,≤ 0.2
17,KAYV,≤ 0.2
18,THKK,≤ 0.2
19,NPVS,≤ 0.2
20,SVTC,≤ 0.2
21,EIVW,≤ 0.2
22,QYMY,0.453
23,MKKS,≤ 0.2
24,HTLY,≤ 0.2

row,Variant,one-hybrid fitness for binding NBS DNA
1,KWPV,≤ 0.2
2,DRQC,≤ 0.2
3,ECNW,≤ 0.2
4,MYQC,≤ 0.2
5,QNHS,≤ 0.2
6,AGVY,≤ 0.2
7,RYSD,≤ 0.2
8,VRAR,0.279
9,HELP,≤ 0.2
10,PFTT,≤ 0.2
11,KSML,≤ 0.2
12,AQLV,≤ 0.2
13,AGDC,≤ 0.2
14,STTQ,≤ 0.2
15,SMTG,≤ 0.2
16,YWNR,≤ 0.2
17,PVLT,≤ 0.2
18,SNES,≤ 0.2
19,RKLW,≤ 0.2
20,SDAT,≤ 0.2
21,CLGK,≤ 0.2
22,NPGL,≤ 0.2
23,PSDR,≤ 0.2
24,EMMK,0.405

row,Variant,one-hybrid fitness for binding NBS DNA
1,RGIR,≤ 0.2
2,MQPL,≤ 0.2
3,LSAC,≤ 0.2
4,QHDG,≤ 0.2
5,VPFM,≤ 0.2
6,DTDG,≤ 0.2
7,CECT,≤ 0.2
8,TTRY,≤ 0.2
9,QDKG,≤ 0.2
10,TKPS,≤ 0.2
11,DAVT,≤ 0.2
12,VMPC,≤ 0.2
13,SSNY,≤ 0.2
14,ITKK,≤ 0.2
15,DKPY,≤ 0.2
16,PLVA,≤ 0.2
17,RLSK,≤ 0.2
18,PVTT,≤ 0.2
19,LYDF,≤ 0.2
20,HVFP,≤ 0.2
21,RFIM,≤ 0.2
22,THSD,≤ 0.2
23,GLSD,≤ 0.2
24,SSRR,≤ 0.2

row,Variant,one-hybrid fitness for binding NBS DNA
1,YTKC,≤ 0.2
2,MRLL,≤ 0.2
3,NTIS,≤ 0.2
4,VAGS,≤ 0.2
5,KWVR,≤ 0.2
6,TKER,≤ 0.2
7,TCWC,≤ 0.2
8,LVWC,≤ 0.2
9,QRPV,≤ 0.2
10,SDPS,≤ 0.2
11,TDMG,≤ 0.2
12,QWNG,≤ 0.2
13,KMGN,≤ 0.2
14,YSCP,≤ 0.2
15,QSYV,≤ 0.2
16,LNLI,≤ 0.2
17,QWMD,≤ 0.2
18,KVRH,≤ 0.2
19,RTDC,≤ 0.2
20,IRET,≤ 0.2
21,VTDC,≤ 0.2
22,TPNK,≤ 0.2
23,TIHK,≤ 0.2
24,VTHV,≤ 0.2

row,Variant,one-hybrid fitness for binding NBS DNA
1,AGAI,≤ 0.2
2,IHIL,≤ 0.2
3,RALY,≤ 0.2
4,TWTK,≤ 0.2
5,AAKV,≤ 0.2
6,SGFH,≤ 0.2
7,QSNS,0.421
8,LHRY,≤ 0.2
9,WRRS,≤ 0.2
10,KKSN,≤ 0.2
11,QDDS,≤ 0.2
12,DKAT,≤ 0.2
13,KVGK,≤ 0.2
14,QNRA,≤ 0.2
15,PTMI,≤ 0.2
16,CTRM,≤ 0.2
17,PCMM,≤ 0.2
18,AKLE,≤ 0.2
19,RCMD,≤ 0.2
20,LILA,≤ 0.2
21,FERR,≤ 0.2
22,PCLN,≤ 0.2
23,GAQT,≤ 0.2
24,EATY,≤ 0.2

row,Variant,one-hybrid fitness for binding NBS DNA
1,NTRR,0.235
2,HRCA,≤ 0.2
3,QWHL,≤ 0.2
4,RGIN,≤ 0.2
5,PFYR,≤ 0.2
6,QHLH,≤ 0.2
7,ARMD,≤ 0.2
8,MLGT,≤ 0.2
9,LHSW,≤ 0.2
10,CHPV,≤ 0.2
11,ERRE,≤ 0.2
12,SFFN,≤ 0.2
13,RISQ,≤ 0.2
14,LCKS,≤ 0.2
15,RYWG,≤ 0.2
16,RCRR,0.77
17,WQKE,≤ 0.2
18,LGRL,≤ 0.2
19,LDDF,≤ 0.2
20,AALC,≤ 0.2
21,GTRP,≤ 0.2
22,TWAD,≤ 0.2
23,ITIS,≤ 0.2
24,QVDR,≤ 0.2

row,Variant,one-hybrid fitness for binding NBS DNA
1,IPCW,≤ 0.2
2,LERA,≤ 0.2
3,IRVN,≤ 0.2
4,KHGC,≤ 0.2
5,LLMF,≤ 0.2
6,SFES,≤ 0.2
7,VHYI,≤ 0.2
8,NLQQ,≤ 0.2
9,HRRC,≤ 0.2
10,CPYG,≤ 0.2
11,AAYV,≤ 0.2
12,TKVG,≤ 0.2
13,QLCA,≤ 0.2
14,HLWT,≤ 0.2
15,STIK,≤ 0.2
16,SDKI,≤ 0.2
17,AVLH,≤ 0.2
18,FLLT,≤ 0.2
19,WQCS,≤ 0.2
20,HFFC,≤ 0.2
21,TPSE,≤ 0.2
22,GYSS,≤ 0.2
23,VQKD,≤ 0.2
24,KLTC,≤ 0.2

row,Variant,one-hybrid fitness for binding NBS DNA
1,EDSN,≤ 0.2
2,QLYA,≤ 0.2
3,SEQA,≤ 0.2
4,AHHC,≤ 0.2
5,VPTF,≤ 0.2
6,DVLT,≤ 0.2
7,WSLS,≤ 0.2
8,KGSV,≤ 0.2
9,RDDF,≤ 0.2
10,KMTS,≤ 0.2
11,DTNY,≤ 0.2
12,HPIG,≤ 0.2
13,WADR,≤ 0.2
14,MILC,≤ 0.2
15,LSNH,≤ 0.2
16,KMQL,≤ 0.2
17,SWWY,≤ 0.2
18,WSKK,≤ 0.2
